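Test compounds were applied to cells in 96-well plates for 48 hours at 5 doses. GI50 marks 50% less growth. The concentration for full growth arrest is given as TGI.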
Test system: NCI-H322M lung
Test: DTP human tumour cell line panel, 48 h

## COc1ccc(-c2ccnc(SCc3cc4ccccc4[nH]c3=O)n2)cc1OC
  GI50: 13.5 µM
  TGI: 31.5 µM

## CC12OOC(C)(OO1)C2CCC(=O)OCCNc1ccnc2cc(Cl)ccc12 (centres undefined)
  GI50: > 18.3 µM
  TGI: > 18.3 µM

From PubChem BioAssay (NCI)
